Results from the RNAGym collection of RNA variant scans (doi:10.7554/elife.90254).
The source gives no read counts; variants with many changes may rest on few reads.

B1: LINE1-mini (parent)
chain: GGCAGAGCUCAACACAGCGUGGCAAAGUGGCUGUGGCUAGACUGCC

Variants of: B1
Test: self-cleavage, relative activity (ratio to wild type); higher = more cleavage; in vitro, sequencing; the parent is a self-cleaving ribozyme
Work on GGCAGAGCUCAACACAUCCUGGCAAAGUGGCUGUGGCGUGACUGCC [G17U G19C U38G A39U] yielded a self-cleavage of 0.07.
Variant GGCAGAGCUCAACACAUCGUGGCAAAGUAGCUGUGGCUAGACUGGC [G17U G29A C45G] has a self-cleavage of 0.05.
GGCAGAGCUCAACACAUCGUGGGAAAGUGACUAUGGCUAAACUGCC [G17U C23G G30A G33A G40A] showed a self-cleavage of 0.08.
For GGCAGAGCUCAACACAUCGUGGCAAAGUGGGUGUGGCUUGACUGCC [G17U C31G A39U], the self-cleavage was 0.12.
GGCAGAGCUCAACACAUCGUAGCAAAGUAGCUGUGGCUAGACUGCC [G17U G21A G29A] gave a self-cleavage of 0.84.
With GGCAGAGCUCAACACAUCGCGGCAAAGUGGCGGUGGCUAGACUGCC [G17U U20C U32G] the self-cleavage was 0.03.
GGCAGAGCUCAACACAUCGUGUCAAAGUGGAUGUGGCUAGACCGCC [G17U G22U C31A U43C] gave a self-cleavage of 0.02.
In the case of GGCAGAGCUCAACACAUCGUGGCAAAGUGGCUGUUGAUAGACUGCC [G17U G35U C37A], the self-cleavage is reported as 0.
With GGCAGAGCUCAACACAUCGUUGCAAAGUGGCUGUGGCUAUACUGCC [G17U G21U G40U] the self-cleavage was 0.01.
Work on GGCAGAGCUCAACACAUCGUUGCAAAGUGGGUGUGGCUAGACUGCC [G17U G21U C31G] yielded a self-cleavage of 0.29.
With GGCAGAGCUCAACACAUCGUUGCAAAGUGGAUGUGGCUAGACUGCC [G17U G21U C31A] the self-cleavage was 0.09.
Work on GGCAGAGCUCAACACAUCUUGGCAAAGUGGAUGGGGCUAGACUGCC [G17U G19U C31A U34G] yielded a self-cleavage of 0.08.
GGCAGAGCUCAACACAUCGUGGCAAAGUGGAUGUGCCUAGACUGCC [G17U C31A G36C] showed a self-cleavage of 0.21.
GGCAGAGCUCAACACAUCGUGGCAAAGUGGCUGUGGCUAGACUAGA [G17U G44A C45G C46A] gave a self-cleavage of 0.02.
GGCAGAGCUCAACACAUCGUGCCAAAGUGGCUGCGGCUAGACUGCC [G17U G22C U34C] gave a self-cleavage of 0.09.
With GGCAGAGCUCAACACAUCGUGGCAAAGUGGCUUUGGCUAGGCUGCC [G17U G33U A41G] the self-cleavage was 0.06.
In the case of GGCAGAGCUCAACACAUCGGGGCAAAGUGGAUGUGGCUAGAGUGCC [G17U U20G C31A C42G], the self-cleavage is reported as 0.04.
In the case of GGCAGAGCUCAACACAUCCUGGCAAAGAGGCUGUGGCUAGACUGCC [G17U G19C U28A], the self-cleavage is reported as 0.93.
Work on GGCAGAGCUCAACACAUCGUGGCAAAGUGGCUCUGGCUAGACUGUC [G17U G33C C45U] yielded a self-cleavage of 0.02.
Work on GGCAGAGCUCAACACAUCGUGACAAAGUGGCUGUAGCUAGACUGCC [G17U G22A G35A] yielded a self-cleavage of 0.04.
For GGCAGAGCUCAACACAUCGUGGCAAAGUGGCUGUGGCUAGACUGUA [G17U C45U C46A], the self-cleavage was 0.04.
With GGCAGAGCUCAACACAUCGCCGCAAAGUGGCUGUGGCUAGACUGCC [G17U U20C G21C] the self-cleavage was 0.11.
With GGCAGAGCUCAACACAUCGUGGCAAAGCGGCUGUGGCUAGAGGGCC [G17U U28C C42G U43G] the self-cleavage was 0.02.
In the case of GGCAGAGCUCAACACAUCGUGGCAAAGUCGCUGUGGCUAAACUGCC [G17U G29C G40A], the self-cleavage is reported as 0.08.
In the case of GGCAGAGCUCAACACAUCGUGGCAAAGUGGCCAUGGCUAGACUGCC [G17U U32C G33A], the self-cleavage is reported as 0.08.
In the case of GGCAGAGCUCAACACAUCGUGGCAAAGGGGCUGUGGCUAGACUGCG [G17U U28G C46G], the self-cleavage is reported as 0.07.
Variant GGCAGAGCUCAACACAUCGUGGCAAAGUCGCUGCCGCUAGACUGCC [G17U G29C U34C G35C] has a self-cleavage of 0.02.
Work on GGCAGAGCUCAACACAUCGUGGCAAAGUGGCUGUGGCUAGACAUCC [G17U U43A G44U] yielded a self-cleavage of 0.01.
Variant GGCAGAGCUCAACACAUCGUGGCAAAGUACCUGUGGCUAGACAGCC [G17U G29A G30C U43A] has a self-cleavage of 0.01.
With GGCAGAGCUCAACACAUCGUGGCAAAGUGGCUAUGGCUAGACAGCC [G17U G33A U43A] the self-cleavage was 0.02.
GGCAGAGCUCAACACAUCGUGGCAAAGUGGGAGUGGCUAGACUGAC [G17U C31G U32A C45A] gave a self-cleavage of 0.04.
With GGCAGAGCUCAACACAUCGUGGCAAAGUGGCUGGCGAUAGACUGCC [G17U U34G G35C C37A] the self-cleavage was 0.19.
With GGCAGAGCUCAACACAUGCUGGUAAAGUCGCUGUGGCUAGAAUGCC [G17U C18G G19C C23U G29C C42A] the self-cleavage was 0.04.
GGCAGAGCUCAACACAUCGUGUCAAAGUGGCUGUGGCUAGACUACC [G17U G22U G44A] gave a self-cleavage of 0.07.
For GGCAGAGCUCAACACAUCGUUGCAAAGUAGCUGUGGCUAGACUGCA [G17U G21U G29A C46A], the self-cleavage was 0.25.
With GGCAGAGCUCAACACAUCGUUGCAAAGUGGCUGUGGCUCGACUGCC [G17U G21U A39C] the self-cleavage was 0.03.
In the case of GGCAGAGCUCAACACAUGGUGGCAAAGUGGCUGUGGCUGGACUGCC [G17U C18G A39G], the self-cleavage is reported as 0.05.
Variant GGCAGAGCUCAACACAUCGCGGCAAAGUGGCUAUGGCUAUACUGCC [G17U U20C G33A G40U] has a self-cleavage of 0.2.
GGCAGAGCUCAACACAUCGUGGCAAAGUGACUGUGGCUCGACUGCC [G17U G30A A39C] gave a self-cleavage of 0.27.
With GGCAGAGCUCAACACAUCGUGGCAAAGUGGUUGUAGCUAGAAUGCA [G17U C31U G35A C42A C46A] the self-cleavage was 0.01.
With GGCAGAGCUCAACACAUCGUGGCAAAGUUGCUGCGGCUAUACUGCC [G17U G29U U34C G40U] the self-cleavage was 0.11.
For GGCAGAGCUCAACACAUCUUGGCAACGUGGAUGUGGCUAGACUGCU [G17U G19U A26C C31A C46U], the self-cleavage was 0.28.
With GGCAGAGCUCAACACAUCGUGGCAAAGUGGCAGUGGCUACACUGCC [G17U U32A G40C] the self-cleavage was 0.08.
Variant GGCAGAGCUCAACACAUAGUCGCAAAGUGGCUGUCGCUAGACUGCA [G17U C18A G21C G35C C46A] has a self-cleavage of 0.03.
Work on GGCAGAGCUCAACACAUCGUGGCAAAUUGGCAGUGGCUAGACUGCC [G17U G27U U32A] yielded a self-cleavage of 0.04.
GGCAGAGCUCAACACAUCGUGGCAAAUUGGCCGUGGCUAGACUGCC [G17U G27U U32C] gave a self-cleavage of 0.09.
For GGCAGAGCUCAACACAUCGUGGCAAAGUCGCAGUUGCUAGUCUGCC [G17U G29C U32A G35U A41U], the self-cleavage was 0.21.
For GGCAGAGCUCAACACAUCGUGGCAAAGUGGCGGUGGCUCGACUGCC [G17U U32G A39C], the self-cleavage was 0.06.
In the case of GGCAGAGCUCAACACAUCGUGGCAAAGUGGCUGUCGCUAUACUGCC [G17U G35C G40U], the self-cleavage is reported as 0.36.
With GGCAGAGCUCAACACAUGCUGGCAAAGUGGCUGUGACUAGACUGCC [G17U C18G G19C G36A] the self-cleavage was 0.31.
With GGCAGAGCUCAACACAUCGUGGCAAAGUGGCUGUGGUUAGACUGGU [G17U C37U C45G C46U] the self-cleavage was 0.02.
GGCAGAGCUCAACACAUCGGGGCAAAGUGGCUGUGGGUAGACUGCC [G17U U20G C37G] gave a self-cleavage of 0.03.
GGCAGAGCUCAACACAUGGUUGCAAAGUGGCUGUGGCUAGACUGCC [G17U C18G G21U] showed a self-cleavage of 0.26.
Variant GGCAGAGCUCAACACAUCGUUGCAAAGUGGCUCUGGUUAGAAUGAC [G17U G21U G33C C37U C42A C45A] has a self-cleavage of 0.01.
Work on GGCAGAGCUCAACACAUUGUGGGUAAGUGGCUGUGGCUAGACUGCC [G17U C18U C23G A24U] yielded a self-cleavage of 0.04.
Work on GGCAGAGCUCAACACAUCGUGGCAAAGUGUCUGUGACUAUUCUGCC [G17U G30U G36A G40U A41U] yielded a self-cleavage of 0.12.
